Results from article PMC4336329 (PLoS ONE, 2015).
The campaign covered roughly 310,000 compounds. About 2,200 (0.71%) showed an effect of 50% or more. The effect is printed as a negative number. The list shows a part of the results.

These molecules were tested against human ether-à-go-go-related gene (hERG) potassium channel (human, UniProt Q12809) (assay: primary screen, population patch clamp on CHO cells stably expressing hERG).
human ether-à-go-go-related gene (hERG) potassium channel, sequence (Q12809 whole entry, looked up): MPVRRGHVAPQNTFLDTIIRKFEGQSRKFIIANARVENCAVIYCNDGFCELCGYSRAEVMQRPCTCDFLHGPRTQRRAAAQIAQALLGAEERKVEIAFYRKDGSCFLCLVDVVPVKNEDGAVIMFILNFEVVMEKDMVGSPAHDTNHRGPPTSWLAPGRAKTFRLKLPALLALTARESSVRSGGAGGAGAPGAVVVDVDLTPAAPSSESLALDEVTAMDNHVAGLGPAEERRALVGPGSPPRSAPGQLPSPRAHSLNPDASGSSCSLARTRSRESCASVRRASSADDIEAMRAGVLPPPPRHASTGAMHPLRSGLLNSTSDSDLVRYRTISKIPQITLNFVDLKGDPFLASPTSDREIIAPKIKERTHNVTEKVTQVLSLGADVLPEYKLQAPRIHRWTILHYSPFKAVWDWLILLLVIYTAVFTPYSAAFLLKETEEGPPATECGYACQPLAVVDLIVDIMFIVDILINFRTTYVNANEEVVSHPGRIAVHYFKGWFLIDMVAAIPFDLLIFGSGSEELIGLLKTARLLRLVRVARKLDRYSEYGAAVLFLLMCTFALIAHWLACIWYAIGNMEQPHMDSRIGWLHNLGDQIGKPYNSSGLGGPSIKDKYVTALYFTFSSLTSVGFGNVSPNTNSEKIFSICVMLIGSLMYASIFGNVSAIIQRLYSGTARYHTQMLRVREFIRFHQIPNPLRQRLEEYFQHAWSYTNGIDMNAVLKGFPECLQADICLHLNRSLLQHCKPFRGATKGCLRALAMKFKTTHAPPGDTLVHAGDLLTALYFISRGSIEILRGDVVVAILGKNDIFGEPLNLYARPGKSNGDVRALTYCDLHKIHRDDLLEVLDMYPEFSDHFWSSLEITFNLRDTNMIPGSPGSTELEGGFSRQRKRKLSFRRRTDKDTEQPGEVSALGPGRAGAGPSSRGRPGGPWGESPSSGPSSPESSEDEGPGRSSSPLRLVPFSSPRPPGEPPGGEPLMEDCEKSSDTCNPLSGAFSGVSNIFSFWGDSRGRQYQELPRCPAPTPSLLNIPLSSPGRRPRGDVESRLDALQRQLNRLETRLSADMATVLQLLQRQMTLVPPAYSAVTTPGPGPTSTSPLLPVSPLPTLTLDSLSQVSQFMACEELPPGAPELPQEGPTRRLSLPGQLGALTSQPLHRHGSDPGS

| SMILES | hERG current change (%, negative = inhibition) at 1uM [%] |
| --- | --- |
| COc1ccc(S(=O)(=O)Nc2cc(Cl)ccc2-n2cncn2)cc1 | 4.87 |
| CC(=O)c1ccc(NC(=O)C(C)N(C)CC(=O)Nc2ccccc2Cl)cc1 (stereo not drawn) | 14.4 |
| CCOC(=O)CN1C(=O)N[C@@H](c2cccc(C(F)(F)F)c2)[C@@H](C(=O)OC)[C@H]1C | 12.7 |
| O=C(NNC(=O)c1cccnc1)Nc1ccc(Cl)c(Cl)c1 | 8.22 |
| COc1ccc(S(=O)(=O)Nc2ccc(NC(C)=O)cc2)cc1 | 5.1 |
| Cc1nn(-c2ccccc2)c(N2CCCC2)c1/C=N/NC(=O)c1cccc(S(=O)(=O)Nc2ccc(Cl)cc2)c1 | 7.06 |
| O=C(NCCc1csc(-c2ccccc2)n1)c1ccco1 | -6.56 |
| N#Cc1ccccc1Cn1c(=O)n(-c2ccc(CC(=O)NCc3ccco3)cc2)c(=O)c2sccc21 | 11.5 |
| CCC(CC)NC(=O)COn1nnc2ccc(S(=O)(=O)N3CCOCC3)cc21 | 3.22 |
| O=C(CSc1nc2ccccc2c(=O)n1Cc1ccco1)N1CCCCCC1 | -82.8 |
| CSc1nc(-c2ccc(Cl)cc2)nn1S(=O)(=O)c1ccc(Cl)cc1 | 6.6 |
| Cn1c(N)c(C#N)c2c(c1=S)CSC(C)(C)C2 | 8.04 |
| N#CCCn1cc(C(=O)NCc2ccccc2)c(-c2ccccc2)n1 | 11.3 |
| Cc1ccc(Cn2nc(C)c(NC(=O)CSc3nc4c(c(C(F)(F)F)n3)CCc3ccccc3-4)c2C)cc1 | 18.5 |
| COCCn1c(SCC(=O)N2CCC(C)CC2)nc2c([nH]c3ccccc32)c1=O | -0.593 |
| O=[N+]([O-])c1cc(-c2nnc(-c3ccccc3)o2)ccc1Oc1ccc(Cl)cc1 | 3.19 |
| COc1ccc(NC(=O)CCN2CCN(S(=O)(=O)c3ccc(OC)cc3)CC2)cc1 | -5.88 |
| Cn1c(=O)c2nc(-c3ccc(Cl)cc3Cl)oc2c2ccccc21 | 18.6 |
| Cc1cccc(C(=O)O/N=C2\CCCc3ccccc32)c1 | 10.1 |
| Cc1cccc(-n2c(-c3ccoc3C)n[nH]c2=S)c1 | 10.6 |
| CCOC(=O)N1CCN(c2c(N3CCN(c4cc(C)ccc4C)CC3)c(=O)c2=O)CC1 | 9.9 |
| CCOc1ccc2nc(SCC(=O)NCc3ccc(OC)c(OC)c3)[nH]c2c1 | 6.33 |
| COc1cccc(C(=O)NCCS(=O)(=O)N(C)C2CCCCC2)c1 | 1.27 |
| O=c1c2ccccc2nc(/C=C/c2ccccc2)n1-c1ccccc1O | 16.2 |
| Cc1ccc(SCCNC(=O)c2ccc([N+](=O)[O-])c(C)c2)cc1 | 13 |
| O=C(CN1C(=O)CCSc2ccccc21)Nc1ccccc1 | -15.6 |
| COC(=O)c1[nH]c2cccc(OC)c2c1NC(=O)CN1CC(C)OC(C)C1 (stereo not drawn) | 8.31 |

| SMILES | hERG current change (%, negative = inhibition) at 1uM [%] |
| --- | --- |
| COc1ccc(NS(=O)(=O)c2ccc(C(=O)OC(C)C(=O)N3CCOCC3)cc2)cc1 (stereo not drawn) | -31.7 |
| CC1CN(c2nc(N(C)c3ccccc3)nc(N)c2[N+](=O)[O-])CC(C)O1 (stereo not drawn) | 10.7 |
| Cc1ccc(C)c(CS(=O)(=O)c2cn(CC(=O)N3CCC(C)CC3)c3ccccc23)c1 | -1.46 |
| O=c1[nH]c(CSc2cccc[n+]2[O-])nc2ccccc12 | 2.76 |
| COc1cc(OC)cc(-c2nc3ccccc3s2)c1 | -7.24 |
| CCNc1nc(SCCOc2ccc(Br)cc2)nc(N(C)C)n1 | 10.2 |
| Cn1c(O)c(N=Nc2ccccc2[N+](=O)[O-])c2ccccc21 | 12.9 |
| Cc1cc(Cl)nc(-c2ccccc2)n1 | 12.2 |
| O=c1c2cc(-c3ccccc3)sc2nc2n1N=C(c1ccccc1)CS2 | 20.5 |
| CCCCc1nnc(NC(=O)c2oc3ccc(OC)cc3c2C)s1 | 3.44 |
| COc1ccccc1C1=CC(=O)C[C@H](c2ccc(F)cc2)C1 | 7.06 |
| CCOC(=O)c1oc2ccccc2c1NC(=O)COc1cccc(OC)c1 | 14.2 |
| CC(Oc1ccc2c(c1)oc(=O)c1ccccc12)C(=O)NCCCN1CCOCC1 (stereo not drawn) | 5.72 |
| CCOC(=O)N1CCN(C2=CC(=O)OC23CCCCC3)CC1 | 6.32 |
| COc1ccc(CN(C)CC(=O)Nc2ccc(SC(F)F)cc2)cc1OC | -49.3 |
| COC(=O)C1=C(C)N(CCCC(=O)O)C(=O)NC1c1cc2c(cc1[N+](=O)[O-])OCO2 (stereo not drawn) | 13.5 |
| Cc1ccc(-c2nc3c(=O)n(-c4ccccc4)c4c(c(=O)n(C)c(=O)n4C)c3o2)cc1 | 12.1 |
| COc1ccc(CC(=O)N/N=C/c2ccc(-c3cccc(C(=O)O)c3)o2)cc1OC | 1.51 |
| CCOc1ccc(CCNC(=O)CCCN2C(=O)c3ccccc3C2=O)cc1OCC | 9.71 |
| CCNC(=O)c1c(NC(C)=O)sc2c1CCCC2 | 2.6 |
| CCCN1C(=O)/C(=C/c2c(N3CCNC(=O)C3CC(=O)OCC)nc3c(C)cccn3c2=O)SC1=S (stereo not drawn) | 11 |
| CCC(=O)c1ccc(OCC(=O)N2CCCC2)c(OC)c1 | 6.29 |
| COc1cc(/C=N/NC(=O)c2cccnc2)ccc1OCC(=O)Nc1ccccc1Cl | 9.01 |
| Cc1cc(=O)oc2cc(NC(=O)c3cccc(S(C)(=O)=O)c3)ccc12 | 12.8 |
| NS(=O)(=O)c1ccc(CCNc2nc3c(-c4cccc(F)c4)nnn3c3ccccc23)cc1 | 17.3 |
| O=C(/C=C/c1cccs1)N1CCCCC1 | 15.7 |
| C=CCn1c(SCC#N)nc2c(c1=O)C(C)(C)Cc1ccccc1-2 | 9.15 |
